Measurements taken from the supplement of paper PMC3334620.
In all, about 33,000 sequences were measured (“E-score (-0.5 to 0.5)”: median about -0.013, highest 2% from about 0.3 on). The list shows a part of the results.

Target: T1, Msn1 (UniProt P22148)
T1 sequence: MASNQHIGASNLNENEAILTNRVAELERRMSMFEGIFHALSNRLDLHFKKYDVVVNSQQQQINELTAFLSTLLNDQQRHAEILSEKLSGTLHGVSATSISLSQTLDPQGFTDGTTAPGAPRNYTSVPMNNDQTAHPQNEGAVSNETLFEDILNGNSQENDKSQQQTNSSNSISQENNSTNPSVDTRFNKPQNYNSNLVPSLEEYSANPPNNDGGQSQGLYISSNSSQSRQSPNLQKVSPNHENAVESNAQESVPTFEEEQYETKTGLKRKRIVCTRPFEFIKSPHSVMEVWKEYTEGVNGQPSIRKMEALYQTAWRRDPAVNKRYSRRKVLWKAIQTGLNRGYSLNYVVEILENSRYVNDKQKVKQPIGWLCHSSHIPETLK
Test: PBM E-score (8-mer binding enrichment) (E-score (-0.5 to 0.5)); higher = stronger / more preferred TF binding; most listed sequences are background and not binding sites
Conditions: protein concentration: 200 nM; construct: GST-full length
Summary of the method: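 Using PURExpress in vitro transcription/translation, GST-tagged yeast transcription factors were made in full-length or DNA-binding-domain form. These were applied at about 100-200 nM to double-stranded universal all-10-mer Agilent arrays, and bound protein was detected with fluorescent anti-GST. Scans were normalised with masliner before the Universal PBM Analysis Suite assigned E-scores to ungapped eight-base words pooled with their reverse complements.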

Sequence | PBM E-score
GCTCTCGA | -0.179
ACATAGGA | -0.103
ACTAGAGC | -0.00897
CAGCCGCC | -0.17
GAGGTCCC | -0.192
ATATTACC | 0.0127
AATTATCG | 0.225
TGCGCACA | 0.029
TACTAGTA | 0.225
ACTCTTCG | -0.0863
GCCCTAAA | -0.189
GCCCCTTA | -0.239
ACTAACAT | 0.268
ACCAAACG | -0.00261
GAGTTTAC | -0.0145
ACTCCAGT | -0.078
CTACTGTC | -0.0568
AACGGCGT | -0.024
CGACTTAG | -0.095
AGTACGAG | 0.0168
GCTAACTA | -0.0398
AACCCGAA | -0.0916
TGCTACCA | -0.0221
CTACACTC | -0.1
TAGCACGA | 0.0937

Sequence | PBM E-score
ACCTCTTG | -0.141
AACCCTCT | -0.241
AGCCTAGC | -0.0563
CCGCGTCA | -0.16
AGACCCGA | -0.0425
CACTCCGG | 0.0934
CAATCCTG | 0.0682
ATGGCTGA | -0.133
CGCCGGAC | 0.118
AATCGAAG | 0.125
ATTTGCGG | 0.249
CCGATGCC | -0.0116
TAGCGAGA | 0.0828
GAATTAGA | 0.173
ACACTTTG | 0.12
ACAACTTC | 0.192
CGGCCTCA | -0.159
AGCTCGTC | -0.0144
TTATGAAA | 0.101
GCTGCAAA | 0.145
ATTAGTAG | 0.00551
GACTATCC | -0.144
CAGAGACA | 0.204
CTCCCATC | -0.22
GCCACGGA | -0.0843

Sequence | PBM E-score
AACAACTT | 0.193
ACACCTCT | -0.181
CTCACCCA | -0.0776
CCGGGTAC | -0.131
CCGCAAAA | 0.00778
ATTAGACC | -0.103
CGGGCCCA | -0.116
AGGACCCC | -0.137
CCGATTCA | -0.0358
GTGGGAAA | 0.0298
CAACGACC | -0.156
CGTTCAAA | -0.0237
CATTGCGA | -0.0316
AGTTCCTG | -0.109
TGGCTCAA | -0.065
AATCTGAT | -0.08
CCTCTTAC | -0.0706
GGGTTAAC | 0.00387
CAGCGTCA | -0.206
CCAGGTCA | -0.164
AGCAAACA | -0.00127
CATTGAGA | 0.0342
GGATTCCC | -0.292
ACTACCTA | -0.108
GCTCTGCC | -0.281

Sequence | PBM E-score
CCCTAGCA | -0.119
GGTTTGCA | -0.172
AGCTTGGG | -0.0922
CGACGAAG | 0.197
CTATAGAC | -0.0671
GTGTAGAA | -0.14
CCAAAGCA | 0.0177
AATTACCC | 0.0245
CCAGAACC | -0.0365
GAAATGAA | 0.145
CAGAATGA | 0.0577
AACCATTG | -0.055
ATCCTTGC | 0.0639
ATATAATA | 0.246
CACGCGTC | 0.155
GGGTAACA | 0.0748
CGCCATGC | -0.16
AGAGGTCA | -0.168
CGCCGTGA | 0.0625
CACGGGGC | -0.217
CGCCTTAA | -0.0314
CGTGGAAG | 0.0386
GGGGGACA | 0.287
GGACCTAA | 0.0993
CATTCACG | 0.0343

Sequence | PBM E-score
GGTGTGGA | -0.094
ATCACTTC | 0.11
CCCTTAAC | -0.272
AGACCCTC | -0.0895
CACGGGCA | -0.196
CAGTAACC | 0.0542
ATTCCCCA | -0.0584
GGTTATCA | -0.115
CTTCTGGC | -0.249
AACTTTGT | 0.197
AGCGAGAC | -0.0133
CTTTTGTA | 0.3
ACGACGGG | -0.0714
CTCATGCC | -0.111
GTGGTGAA | -0.109
TGCAACCA | -0.0602
CCTGGACA | 0.417
CTGCACCA | -0.265
CCAGGCAA | -0.0261
CCTAGTAC | 0.0781
GTGTATCA | 0.255
GGACCCTA | -0.199
GCTGCGGA | 0.064
CAGCACAC | -0.093
ACAACAAG | 0.116

Sequence | PBM E-score
TTCGACAA | 0.191
ACTTCCCC | -0.219
ACGTGCAT | -0.106
CTAGCACA | -0.206
CGAGTAAC | 0.0849
CCCCAACG | 0.086
CTTAGGGA | -0.169
ACTCGTCA | -0.132
AAGTTAGG | 0.0209
ACTCCATC | 0.106
AGTGTCAG | 0.063
GACTCTAC | -0.253
ATGGATGC | 0.0578
CAGTACTG | -0.103
ATTAACCG | 0.144
TACTGGAA | 0.0647
CGGTCTAG | 0.0838
GGAGGGCA | -0.262
CAATTTCA | 0.101
AAAATACG | 0.0427
CACAGCGC | 0.0236
GTCCTAAC | 0.36
CAATCGTA | 0.126
AAGGGGGG | -0.442
ACTAGGGC | -0.17

Sequence | PBM E-score
ATCCAAAG | 0.138
CGCCGCCG | -0.15
TGCACAAA | 0.215
AGCCATAC | -0.102
CCCGGATC | 0.0149
CAGGGTCG | -0.224
AAAGATCC | -0.12
AGGTTCCG | 0.0578
CTCTTTTA | -0.139
AAGATCGT | 0.0158
CGGAATAA | -0.0267
ATGGTAAA | 0.156
CTTTTTAC | 0.0646
CACTGCAC | -0.0104
AGTTCTTG | 0.0615
AAATCGTA | 0.0196
GTGTGTGA | -0.0578
GAATGGTA | 0.0817
ATGGCAAC | 0.0906
GTTCTTCA | 0.128
CACACAGG | -0.0431
GATGTTGC | -0.0559
ACAGACTC | -0.14
CACCCACG | 0.0403
ATATGGCA | -0.0465

Sequence | PBM E-score
GCTGCCAA | -0.23
ACCAGTTA | 0.0334
CGCTGTCA | -0.00333
CCGTTTAA | 0.125
AGTGTCTC | 0.0356
AATCCTCG | -0.116
AGACCTTA | 0.0418
TATAATAA | 0.194
TTTCCAAA | -0.0383
AGATTACG | 0.0842
CCAATGGG | -0.175
GTTGATGA | 0.0432
ACTCATGA | 0.101
TATATAAA | 0.253
ACCTCACC | -0.229
CATTCTCA | 0.188
AATTTATG | 0.207
CACGGCCG | -0.118
GATTTTGA | 0.216
CATACGCA | -0.00892
AGGACGAC | -0.102
ATCTCTTC | 0.0787
ACTCGCGC | 0.0147
CGAAAATA | 0.118
GAGAGTTA | -0.0018

Sequence | PBM E-score
CCATTACC | -0.057
AGATCAGC | -0.2
TGGGTCAA | -0.0713
CATCCGCA | 0.0727
CGACGACG | -0.0678
CTTTATTA | 0.135
AAACTTAT | 0.129
AGGCAAGA | -0.0214
CACGTTCC | -0.0731
ATGAAGCG | -0.0739
ACCGGTTC | -0.0882
CATCTAGC | -0.0457
CAAGCTAG | -0.189
CGCGACGA | 0.171
AGGTCGCC | -0.164
AGAGTAGA | 0.0921
CAAACACA | 0.189
GACGCCCA | -0.0257
AACTAAGG | -0.076
